Some of these densities may be calculated back from excess volumes.
Assay: xn = mol fraction of the nth substance listed
Conditions: 100 kPa

CCCCCC[n+]1ccn(C)c1.NC(CCC(=O)O)C(=O)[O-] + O
mass density [kg/m3]
Conditions	308.15 K	313.15 K	318.15 K	323.15 K	328.15 K	333.15 K	338.15 K	343.15 K
x1 = 0.7806	1107.3	1104.8	1101.7	1099.9	–	1094.6	1091.9	–
x1 = 0.8042	1109.1	1106.6	–	1101.6	1099.3	1097.3	1094.6	–
x1 = 0.8317	1112	1109.5	1106.4	1104.5	1102.1	–	–	1094.8
x1 = 0.8442	1113.7	1111.2	1108.1	–	1103.8	1100.9	1098.3	–
x1 = 0.8743	–	1114	1110.9	1109	–	1103.8	1101.2	1099.3

CCCCC[n+]1ccn(C)c1.NC(CCC(=O)O)C(=O)[O-] + O
mass density [kg/m3]
Conditions	308.15 K	313.15 K	318.15 K	323.15 K	328.15 K	333.15 K	338.15 K	343.15 K
x1 = 0.7926	1138.3	–	1133.1	1130.7	1128	1125.5	1122.6	1120
x1 = 0.8113	1140.1	–	1134.9	1132.4	–	1127.2	1124.3	1121.8
x1 = 0.8285	–	1140.5	1137.8	1135.3	–	1130.1	1127.2	1124.7
x1 = 0.844	1144.7	–	1139.5	1136.9	1134.3	1131.8	1129	1126.4
x1 = 0.8676	–	1145	1142.3	1139.8	–	–	1131.9	1129.2
